Results taken from PubChem BioAssay AID445 (National Center for Advancing Translational Sciences (NCATS), 2006).
Screen size: about 110,000 compounds; about 40 (0.04%) were called active. The shares of active, inactive and inconclusive entries below differ from those in the screen. Calls follow the shape of the dose curve; as a rule, active = well fitted curve in the direction sought with a large enough effect in the signal ratio (not every such curve was filed as active); inconclusive = small, poorly fitted or top-dose-only effect, or a change in a side signal; inactive = flat fitted curve, though single readings scatter; the % refers to the signal ratio. A potency beside an inconclusive call is a rough fit, not a confirmed value.

Assay: IkB Signaling;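 as to IkBa stabilization activation: 0% = basal untreated cells and 100% = reference inhibitor full response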
Conditions: ABC-DLBCL IkBa-CBG/CBR dual luciferase ratio (green luciferase fused to IkBa over red control in OCI-Ly3 lymphoma cells), 4 h; IkBa stabilization activation: at 57.1 µM (top of the series), scaled: untreated 0%, proteasome inhibitor 100% unless noted
Summary of the method: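 In this assay, an IκBα–CBG68 fusion accumulates when IKK-driven degradation is blocked; native CBR normalizes for cell number. OCI-Ly3 cells were treated 4 h with compound and doxycycline, then green and red light read after Chroma-Glo addition.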
Potency is read from the fitted curve at half-maximal effect.

SMILES	IkBa stabilization activation	Potency
CCOc1ccc(NC(=O)c2c(NCc3sccc3C)sc3c2CCCCC3)cc1	inconclusive: 3.45% [signal inhibitor]	–
COCCNC(=O)CCc1c(C)nc2c(c(C)nn2-c2ccc(C)cc2)c1C	inconclusive: -0.613% [signal inhibitor]	–
CC(C)(C)NCc1cccn1-c1sc2c(c1C#N)CCCC2	inactive	–
CCCN(CCC)c1nc(-c2ccccc2F)nc2ccccc12	inconclusive: 6.65% [signal inhibitor]	–
O=C(CSc1nc2c([nH]c3ccccc32)c(=O)n1-c1ccc(F)cc1)NC1CCCCC1	inconclusive: 1.44% [signal inhibitor]	–
CCc1ccccc1NC(=O)CSC1=Nc2ccccc2C2=NC(Cc3ccccc3)C(=O)N12 (stereo unspecified)	inactive	–
CCCOc1ccc(C(=O)N2CCN(c3ccc(NC(=O)CC)cc3Cl)CC2)cc1	inconclusive: -2.34% [signal inhibitor]	–
Cc1ccc(-n2nc(C)c3c(C(=O)NCc4ccc(F)cc4)cc(C)nc32)cc1	inactive	–
O=C(Nc1ccc2nsnc2c1)c1cccs1	inactive	–
O=C(Nc1ccc(F)cc1F)c1cc2c(=O)n3ccccc3nc2s1	inactive	–
CC1CCc2c(sc(NC(=O)c3ccc(Cl)cc3Cl)c2C#N)C1 (stereo unspecified)	inconclusive: 15.1% [signal inhibitor]	–
Cc1nc2oc3c(NCc4ccccc4)ncnc3c2c2c1COC(C)(C)C2	inactive	–
O=C1N(Cc2cccc(C(F)(F)F)c2)c2ccccc2S(=O)(=O)N1c1cccc(Cl)c1	inconclusive: 0.608% [signal inhibitor]	–
Cc1c(Cl)cccc1N1C(N)=C(C#N)C(c2cc(CN3CCOCC3)cs2)C2=C1CCCC2=O (stereo unspecified)	inconclusive: 13.1% [signal inhibitor]	–
COc1ccc(OCC(=O)Nc2ccc(C)cc2)cc1	inactive	–
Cc1ccc(NC(=O)Cn2cnc3nc4c(cc3c2=O)CCCC4)cc1Cl	inconclusive: -1.1% [signal inhibitor]	–
CCOc1ccc(S(=O)(=O)c2cn(Cc3ccccc3)c3ccc(OCC)cc3c2=O)cc1	inconclusive: 1.49% [signal inhibitor]	–
CCc1ccc(S(=O)(=O)Nc2cccc(-c3ccc(N4CCC(C)CC4)nn3)c2)s1	inconclusive: 10.5% [signal inhibitor]	–
CC(C)(C)OC(=O)N1CCC(c2c(C(=O)NCc3ccco3)cnn2-c2ccccc2)CC1	inconclusive: 4.87% [signal inhibitor]	–
CCn1c(=O)cc(SCC(=O)NCc2ccccc2OC)c2ccccc21	inconclusive: 13.6% [signal inhibitor]	–
Nc1cc(C(=O)O)ccc1Nc1ccccc1	inconclusive: 5.6% [signal inhibitor]	–
Cc1cccc(C(=O)NC(=O)Nc2ccc(-c3cc(C(F)(F)F)nn3-c3ccccc3)cc2)c1	inconclusive: 0.0538% [signal inhibitor]	–
O=C(Cn1cc(C(=O)c2ccco2)c2ccccc21)Nc1ccccc1Cl	inconclusive: 4.98% [signal inhibitor]	–
O=C(COC(=O)c1cccnc1)c1ccc(Cl)cc1	inactive	–

SMILES	IkBa stabilization activation	Potency
Cc1cc(C)c2c(=O)cc(C(=O)Nc3ccc(S(=O)(=O)N(C)Cc4ccccc4)cc3)oc2c1	inactive	–
Cc1nc2sccn2c1-c1nc(C2CC2)c(C(=O)c2ccc3c(c2)NC(=O)CO3)s1	inactive	–
CCOC(=O)c1sc2ccccc2c1S(=O)(=O)N1CCN(c2cccc(C)c2C)CC1	inconclusive: 1.6% [signal inhibitor]	–
COc1cc(NC(=O)C2CCCN(S(=O)(=O)c3ccc4c(c3)CCCC(=O)N4)C2)cc(OC)c1 (stereo unspecified)	inconclusive: 1.91% [signal inhibitor]	–
COc1cc(Cl)c(C)cc1NC(=O)Cn1ncc2c(=O)oc3ccccc3c21	inactive	–
CCCCOc1ccc(C2C3CN(C(=O)OCC)CC=C3C(C#N)=C(N)C2(C#N)C#N)cc1OC (stereo unspecified)	inconclusive: -0.158% [signal inhibitor]	–
COc1ccc(-c2nc(SCC(=O)c3ccc(OC)c(Br)c3)n[nH]2)cc1	inactive	–
CCC(C)n1c(=O)c(C(=O)Nc2ccccc2S(N)(=O)=O)c(O)c2ccccc21 (stereo unspecified)	inconclusive: 8.54% [signal inhibitor]	–
CCOc1ccc(C(C)=O)cc1N1C(=O)C2C3C=CC(C3)C2C1=O (stereo unspecified)	inactive	–
CCC(C(=O)OC)n1cnc2c(cnn2-c2ccc(F)cc2)c1=O (stereo unspecified)	inactive	–
c1ccc(CNc2nc3ccccc3n3cnnc23)nc1	inactive	–
N=c1c(C(=O)NCc2ccc(F)cc2)cc2c(=O)n3ccccc3nc2n1CCCN1CCOCC1	inactive	–
COc1ccccc1OCCn1c(COc2cc(C)ccc2C)nc2ccccc21	inactive	–
Cc1nn2c(C)c(C(=O)N3CCN(c4ccccc4)CC3)cnc2c1-c1ccccc1	inconclusive: 1.96% [signal inhibitor]	–
Cc1ccc(CCNC(=O)c2cc3c(=O)oc4ccccc4c3s2)cc1	inconclusive: 4.97% [signal inhibitor]	–
COc1cc(OC)cc(C(=O)Nc2ccc3oc(-c4ccccc4C)nc3c2)c1	–	inconclusive: 3.98 µM [signal inhibitor]
Cc1ccccc1NC(=O)c1c(C)oc2ccc(O)c(CN3CCCC3)c12	inactive	–
O=C(COc1ccc(F)cc1Br)N1CCc2ccccc21	inactive	–
CC(C)CNc1nc(NC(C)(C)C)nc(Oc2ccc(=O)n(-c3ccccc3)n2)n1	inconclusive: 2.19% [signal inhibitor]	–
COc1cc(C2c3c(oc4ccc(F)cc4c3=O)C(=O)N2c2nc(C)c(C)s2)cc(OC)c1OC (stereo unspecified)	inactive	–
Cc1ccc(N(C)C(=O)Cn2cnc3onc(-c4ccc(F)cc4)c3c2=O)cc1C	inconclusive: 2.9% [signal inhibitor]	–
CN1CCN(C(=O)CSc2nc(-c3cccs3)cc(-c3cccs3)c2C#N)CC1	inconclusive: 2.33% [signal inhibitor]	–
CC(C)OCCCNC(=O)CCCn1c(=O)[nH]c2ccsc2c1=O	inconclusive: -0.981% [signal inhibitor]	–
Cc1cc(C)cc(Nc2cc(C(=O)NCCCN(Cc3ccccc3)C(C)C)c3ccccc3n2)c1	inconclusive: 2.63% [signal inhibitor]	–

SMILES	IkBa stabilization activation	Potency
CN(Cc1ccco1)c1ncncc1-c1cccc(NS(C)(=O)=O)c1	inactive: 1.86% [at 11.4 µM, scaled: untreated 0%, proteasome inhibitor 100%]	–
C=C1CC[C@@H]2[C@](C)(CC[C@@H](O)[C@]2(C)CO)[C@@H]1C/C=C1/C(=O)OC[C@H]1O	inactive: 9.86% [at 11.4 µM, scaled: untreated 0%, proteasome inhibitor 100%]	–
CCN(Cc1ccccc1)C(=O)Cn1c(=O)n(-c2ccc(F)c(Cl)c2)c(=O)c2sc3ccccc3c21	inconclusive: 1.49% [signal inhibitor]	–
CCC(C)(C)n1nnnc1C(c1cc2ccc(OC)cc2[nH]c1=O)N1CCc2ccccc21 (stereo unspecified)	inconclusive: 7.73% [signal inhibitor]	–
COc1ccc(-c2nc3c4cnn(-c5ccccc5F)c4ncn3n2)cc1	inactive	–
Cc1ccc(NC(=O)c2oc3ccc(S(=O)(=O)N4CCCCC4)cc3c2C)cc1C	inconclusive: -0.125% [signal inhibitor]	–
Cc1ccc(C)c2sc(NC(=O)c3ccc(S(=O)(=O)N4CCCC4)cc3)nc12	inconclusive: 3.05% [signal inhibitor]	–
Cc1c(CNCc2ccc(OC(C)C)cc2)c(C(=O)O)c(C)n1Cc1ccc(Cl)cc1	inactive	–
CCN1CCN(CCCNC(=O)c2cc3c(=O)n(CC)c4ccccc4c3s2)CC1	inconclusive: 3.04% [signal inhibitor]	–
CC(=O)N1CCOc2cc(S(=O)(=O)NCc3ccc(C)cc3)c(C)cc21	–	inconclusive: 3.98 µM [signal inhibitor, partial curve]
COc1ccc(-c2cc(C(F)(F)F)nc(SCC(=O)N(C)Cc3ccccc3)n2)cc1OC	inconclusive: -0.0426% [signal inhibitor]	–
COc1ccc2nc(S(=O)Cc3ncc(C)c(OC)c3C)[nH]c2c1 (stereo unspecified)	inactive	–
COc1cc(O)ccc1C1CC(=O)Nc2c1c(=O)nc(SCc1ccccc1C)n2C (stereo unspecified)	inconclusive: 2.53% [signal inhibitor]	–
CCC(C)(C)NS(=O)(=O)c1cc(-c2cc(C)no2)ccc1C	inactive	–
CCN1c2ccccc2-c2nc(SCC(=O)Nc3cccc(C(F)(F)F)c3)ncc2S1(=O)=O	inconclusive: 3.49% [signal inhibitor]	–
Cc1ccc(C)c(CN2C(=O)c3ccccc3S(=O)c3ccc(C(=O)N4CCC(C)CC4)cc32)c1 (stereo unspecified)	inconclusive: 3.27% [signal inhibitor]	–
CCOC(=O)c1cccc(NC(=O)c2cc(S(=O)(=O)N3CCCCCC3)cn2C)c1	inconclusive: 3.26% [signal inhibitor]	–
COc1ccc(CNc2oc(-c3ccc(COc4ccc(Cl)cc4)o3)nc2C#N)cc1	inactive	–
O=C(c1ccccc1F)N1CCN(CC2CC3C=CC2C3)CC1 (stereo unspecified)	inactive	–
O=c1oc2c3c4c(cc2cc1-c1nc2ccccc2[nH]1)CCCN4CCC3	–	inconclusive: 6.31 µM [rising, partial curve]
CC1CC(C(O)c2ccccn2)C(=O)C(C(O)c2ccccn2)C1 (stereo unspecified)	–	inconclusive: 6.31 µM [rising, partial curve]
CC(=O)Nc1cc(CN2CCCCC2)c(O)c2ncccc12	inactive: 0.768% [at 11.4 µM, scaled: untreated 0%, proteasome inhibitor 100%]	–
O=S(=O)(c1ccccc1)N1CCC2(CCCN(c3ccccn3)C2)CC1	inactive: 2.1% [at 11.4 µM, scaled: untreated 0%, proteasome inhibitor 100%]	–
